Test results as given in PubChem BioAssay AID759 (NMMLSC, 2007).
Out of some 190,000 compounds screened, about 270 (0.14%) were called active. Inconclusive results, whose numbers are uncertain, are shown with a selection of clear calls.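 How the source made its calls: active means GTP binding activity at least 20% away from the 100% baseline, either lowered as inhibitor or raised as activator; inconclusive means flagged as likely green fluorescent, judged across all proteins in the well; inactive means the rest.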

Each compound was assayed against GTPase HRas (Homo sapiens) (UniProt P01112) (assay: HRas wt fluorescent GTP binding changes, either direction – biochemical, wildtype, bead-based flow cytometry, multiplex, primary screen (AID 759;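 further: 0% = unlabeled GTP competition control and 100% = no-compound control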)). Settings: GST-Ras wt beads, Bodipy-FL-GTP binding, at 10 µM, actives lie on both sides.
UniProt P01112, sequence (P01112 whole entry, looked up): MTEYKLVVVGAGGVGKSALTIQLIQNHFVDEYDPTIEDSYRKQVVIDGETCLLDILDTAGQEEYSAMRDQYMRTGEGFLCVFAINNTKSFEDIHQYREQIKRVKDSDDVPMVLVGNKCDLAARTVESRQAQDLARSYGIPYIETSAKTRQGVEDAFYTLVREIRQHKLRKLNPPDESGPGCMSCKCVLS
With `CCc1nnc(NC(=O)c2cc(S(=O)(=O)N3CCOCC3)ccc2N2CCCCC2)s1` the GTP binding activity was inconclusive: 416%.
For `Cn1c(N2CCN(c3ccccn3)CC2)nc2c1c(=O)n(Cc1ccc(Cl)cc1)c(=O)n2C`, the GTP binding activity was inconclusive: 89%.
In the case of `O=C(CCCN1C(=O)c2cccc3cccc(c23)C1=O)N1CCN(c2ccc(F)cc2)CC1`, the GTP binding activity is reported as inconclusive: 95%.
For `COc1ccc2cc3cc(C(=O)NCCCN4CCOCC4)oc3nc2c1`, the GTP binding activity was inconclusive: 93%.
With `COc1cc(C)c(S(=O)(=O)N2CCN(C)CC2)cc1C` the GTP binding activity was inconclusive: 103%.
With `CCOc1ccc(C(C(=O)Nc2ccc(F)cc2)N(C(=O)Cn2nnc3ccccc32)C2CC2)cc1` (configuration not stated) the GTP binding activity was inconclusive: 102%.
`CCOC(=O)N1CCC(NC(=O)c2cc3c(-c4ccc(OC)c(OC)c4)nn(C)c3s2)CC1` was tested, and the GTP binding activity was inconclusive: 85%.
`CC(C)NC(=O)CN(c1cccc([N+](=O)[O-])c1)S(=O)(=O)c1ccccc1` was tested, and the GTP binding activity was inconclusive: 86%.
`CCC(C)Sc1nc2c(c(=O)[nH]c(=O)n2C)n1C` (configuration not stated) was tested, and the GTP binding activity was inactive: 104%.
`O=C(c1ccco1)N1CCN(C(=O)c2cnn3c2NC(c2cccs2)CC3C(F)(F)F)CC1` (configuration not stated) was tested, and the GTP binding activity was inconclusive: 102%.
For `Cc1cccc2cc(C#N)c(NCCNS(=O)(=O)c3ccc4c(c3)OCCO4)nc12`, the GTP binding activity was inconclusive: 92%.
For `CC1(C)CC(=O)C/C(=N\NC(=O)c2cccs2)C1`, the GTP binding activity was inconclusive: 105%.
For `O=C(NC(=S)Nc1ccccc1N1CCOCC1)c1sc2ccccc2c1Cl`, the GTP binding activity was inconclusive: 102%.
For `O=C(Nc1nc(-c2cccnc2)cs1)c1ccccc1F`, the GTP binding activity was inconclusive: 94%.
`CC(=O)Nc1nc(CC(C)C)cc2c1c(=O)oc1ccccc12` was tested, and the GTP binding activity was inconclusive: 92%.
`c1ccc(-n2nnnc2OCCOc2nnnn2-c2ccccc2)cc1` was tested, and the GTP binding activity was inconclusive: 95%.
For `CNS(=O)(=O)c1cccc(C(=O)OCC(=O)Nc2ccc(OC)cc2[N+](=O)[O-])c1`, the GTP binding activity was inactive: 97%.
For `CCOc1cc(/C=N/Nc2nncc(-c3ccccc3)n2)ccc1O`, the GTP binding activity was inactive: 83%.
`CC(=O)c1ccc2c(c1)CC(C)C(=O)N2C` (configuration not stated) was tested, and the GTP binding activity was inactive: 101%.
For `Cc1cc2c(c(Sc3ccccc3)n1)C(=O)OC2`, the GTP binding activity was inconclusive: 107%.
With `COc1cc2nc(/C=C/c3cc(OC)c(OC)c(OC)c3)sc2cc1SC` the GTP binding activity was inconclusive: 92%.
In the case of `Cc1ccc(NCc2nnc(SCC(=O)Nc3nnc(C)s3)n2C)cc1`, the GTP binding activity is reported as inconclusive: 94%.
`O=S(=O)(Nc1ccc(Cl)nn1)c1ccccc1` was tested, and the GTP binding activity was inconclusive: 95%.
In the case of `N#CC1=C(N)N(c2ccccc2C#N)C2=C(C(=O)CCC2)C1c1ccsc1` (configuration not stated), the GTP binding activity is reported as inconclusive: 106%.
`CC1=CC(c2ccc(Cl)cc2)n2nc(NS(=O)(=O)c3ccc(C)cc3)nc2N1` (configuration not stated) was tested, and the GTP binding activity was inconclusive: 91%.
In the case of `CN(/N=C/C=C/c1ccccc1)C1=NS(=O)(=O)c2ccccc21`, the GTP binding activity is reported as active: 68%.
For `Cc1nc2nc(SCC(=O)O)nn2c(C)c1Cc1c(F)cccc1Cl`, the GTP binding activity was active: 78%.
`CCOC(=O)CSc1nc2ccccc2n1CC(=O)N(C(C)C)C(C)C` was tested, and the GTP binding activity was inconclusive: 100%.
`CN(c1ccccc1)c1ccc(/C=N/NC(=O)CC#N)cc1` was tested, and the GTP binding activity was inactive: 101%.
In the case of `COC(=O)c1c(NC(=O)C2C3C=CC(CC3)C2C(=O)O)sc(C)c1C` (configuration not stated), the GTP binding activity is reported as inconclusive: 91%.
In the case of `COc1cccc(/C=N/Nc2ncnc3c2ncn3Cc2ccccc2)c1O`, the GTP binding activity is reported as inconclusive: 81%.
In the case of `Cc1ccc(C)n1N1C(=O)/C(=C\c2ccc(Cl)cc2)SC1=S`, the GTP binding activity is reported as inactive: 95%.
`COc1ccc(C(=O)N2CCCC(CCC(=O)NCc3ccc(F)c(F)c3)C2)o1` (configuration not stated) was tested, and the GTP binding activity was inconclusive: 109%.
For `CCN(CC)S(=O)(=O)c1ccc(C(=O)OCn2nnc3ccccc3c2=O)cc1`, the GTP binding activity was inactive: 100%.
For `O=C(Cn1cnnn1)Nc1cccc(S(=O)(=O)N2CCCCC2)c1`, the GTP binding activity was inconclusive: 130%.
With `COc1cc2nc(C3CCC3)n(NC(=O)COc3ccccc3)c(=O)c2cc1OC` the GTP binding activity was inconclusive: 93%.
`O=C(O)CCCNc1ccc(S(=O)(=O)N2CCCCC2)cc1` was tested, and the GTP binding activity was inactive: 98%.
For `O=C(NCc1ccccn1)C1CC(c2ccc(Cl)c(Cl)c2)=NO1` (configuration not stated), the GTP binding activity was inconclusive: 102%.
In the case of `COc1ccc(-n2c(=S)[nH]c3cc(C(=O)Nc4cc(OC)c(OC)c(OC)c4)ccc3c2=O)c(OC)c1`, the GTP binding activity is reported as inconclusive: 89%.
In the case of `COc1ccc(CNCC(=O)Nc2ccccc2-n2cccc2)cc1`, the GTP binding activity is reported as inactive: 104%.
`CCCN(Cc1ccccc1)C(=S)Nc1ccc(C(C)=O)cc1` was tested, and the GTP binding activity was inconclusive: 94%.
In the case of `C=CCn1c(CSc2nc3ccccc3s2)n[nH]c1=S`, the GTP binding activity is reported as inconclusive: 103%.
In the case of `COc1cccc(NC(=O)CN(c2ccc3c(c2)OCO3)S(C)(=O)=O)c1`, the GTP binding activity is reported as inconclusive: 93%.
In the case of `COc1cccc(C(=O)N2CCN(C3CCC(c4ccccc4)CC3)CC2)c1OC` (configuration not stated), the GTP binding activity is reported as inconclusive: 112%.
`COc1ccc(CNc2nn[nH]n2)cc1OC` was tested, and the GTP binding activity was inconclusive: 104%.
`COCCNC(=S)Nc1ccc2[nH]c(=O)[nH]c2c1` was tested, and the GTP binding activity was inactive: 96%.
In the case of `Cc1ccc(NC(=O)Cn2ccc([N+](=O)[O-])n2)cc1C`, the GTP binding activity is reported as inactive: 99%.
With `COC(=O)c1c(NC(=O)c2cccs2)sc2c1CCCC2` the GTP binding activity was inconclusive: 106%.
With `CC(C)COC(=O)NCCCOC(=O)Nc1ccccc1` the GTP binding activity was inconclusive: 98%.
`Cc1cc(OC(=O)c2ccccc2)c([N+](=O)[O-])c(=O)[nH]1` was tested, and the GTP binding activity was inactive: 101%.
With `O=C(O)C1CC=CCC1C(=O)NNS(=O)(=O)c1ccccc1` (configuration not stated) the GTP binding activity was inactive: 99%.
`CCOC(=O)c1cc2c(=O)[nH]ccc2nc1C` was tested, and the GTP binding activity was inconclusive: 89%.
`O=C(O)c1ccc(N2CC3CC(C2)c2cccc(=O)n2C3)c(NC(=S)Nc2ccc(Br)cc2)c1` (configuration not stated) was tested, and the GTP binding activity was inactive: 100%.
For `O=C(O)COC(=O)C1C(c2ccccc2)C(C(=O)O)C1c1ccccc1` (configuration not stated), the GTP binding activity was inactive: 98%.
For `Cc1cc2cc(C(c3nnnn3Cc3ccco3)N3CCc4ccccc43)c(=O)[nH]c2cc1C` (configuration not stated), the GTP binding activity was inconclusive: 94%.
In the case of `COc1ccc(C(=S)N2CCCCC2)cc1Br`, the GTP binding activity is reported as inconclusive: 94%.
For `O=C(Nc1nc2ccccc2n1CCN1CCCCC1)C1CCCCC1`, the GTP binding activity was inconclusive: 103%.
In the case of `CN(Cc1ccon1)C(=O)CC1C(=O)NCCN1CC(C)(C)C` (configuration not stated), the GTP binding activity is reported as inactive: 104%.
For `Cc1cc(C)nc(NS(=O)(=O)c2ccc(N/C=C\C(=O)c3ccc(Cl)cc3)cc2)n1`, the GTP binding activity was inconclusive: 103%.
`O=C(c1ccco1)N1CCN(S(=O)(=O)c2ccccc2[N+](=O)[O-])CC1` was tested, and the GTP binding activity was inactive: 100%.
`CN1CCN(NC(=O)CC(C)(C)C)CC1` was tested, and the GTP binding activity was inactive: 97%.
In the case of `CCNC(=O)CC1C(=O)N(c2ccc(F)cc2)C(=S)N1CCc1ccncc1` (configuration not stated), the GTP binding activity is reported as inconclusive: 99%.
With `Cc1nc(Nc2ccc(C(=O)O)cc2)nc(Nc2ccc(C(=O)O)cc2)c1[N+](=O)[O-]` the GTP binding activity was active: 60%.
In the case of `Cc1nn2c(-c3cccc(NC(=O)c4ccco4)c3)nnc2c2ccccc12`, the GTP binding activity is reported as inconclusive: 75%.
In the case of `CCN(CC)S(=O)(=O)c1ccc2oc(C(=O)N3CCc4ccccc4C3)c(C)c2c1`, the GTP binding activity is reported as inactive: 110%.
With `Cc1cc(C)cc(N(C(C)C(=O)N2CCOCC2)S(C)(=O)=O)c1` (configuration not stated) the GTP binding activity was inconclusive: 95%.
`COc1cc(Cl)cc(C(=O)O)c1OCC(=O)O` was tested, and the GTP binding activity was inactive: 93%.
With `Cc1ccc(-n2nc3c([n+]2[O-])CCc2c-3no[n+]2[O-])cc1` the GTP binding activity was inconclusive: 102%.
With `CN1CCN(C(=O)C2=C[C@H](c3csc4ccccc34)C[C@H](OCCCCO)O2)CC1` the GTP binding activity was inactive: 96%.
For `CCN1C(=O)/C(=C/C=C2/Sc3ccc4ccccc4c3N2CCO)SC1=S`, the GTP binding activity was active: 78%.
In the case of `C/C(=N/NC(=O)CNc1ccc(Cl)cc1C)c1ccc(C)cc1`, the GTP binding activity is reported as inactive: 98%.
`Cc1ccc(Nc2nc(CSc3nnnn3-c3ccccc3)cs2)cc1` was tested, and the GTP binding activity was inconclusive: 89%.
In the case of `COc1ccc2cc(C(C)=O)c(=O)oc2c1`, the GTP binding activity is reported as inconclusive: 102%.
With `O=C(CCc1nc2ccccc2c(=O)[nH]1)Nc1ccc(N2CCCCC2)cc1` the GTP binding activity was inconclusive: 97%.
`COc1ccc(-c2csc(N3CCOCC3)n2)cc1OC` was tested, and the GTP binding activity was inconclusive: 104%.
For `CN(C)c1ccc(C(CNS(=O)(=O)c2ccc3ccccc3c2)c2c[nH]c3ccccc23)cc1` (configuration not stated), the GTP binding activity was inconclusive: 95%.
With `COc1ccc(N2CCN(C(=O)CSc3nnc(NC(=O)C4CCC4)s3)CC2)cc1` the GTP binding activity was inactive: 102%.
`COc1cccc(C2CC(c3ccccc3OC)n3ncnc3N2)c1` (configuration not stated) was tested, and the GTP binding activity was inactive: 100%.
In the case of `Cc1cc(NC(=O)c2sccc2C)n(-c2nc3ccccc3[nH]2)n1`, the GTP binding activity is reported as inconclusive: 87%.
For `CC(Oc1ccc(Cl)cc1Cl)c1nc(-c2ccc(NC(=O)c3ccco3)cc2)no1` (configuration not stated), the GTP binding activity was inconclusive: 105%.
With `CCn1cc(/C=N/NC(=O)COc2cccc3cccnc23)c2ccccc21` the GTP binding activity was inactive: 100%.
For `CC(C)C(=O)N1C2CCC1CC(O)(c1ccc(F)cc1)C2` (configuration not stated), the GTP binding activity was inconclusive: 94%.
In the case of `S=c1[nH]c2ccccc2o1`, the GTP binding activity is reported as inactive: 99%.
With `CS(=O)(=O)c1ccc(C(=O)OCc2nnc(-c3ccccc3)o2)cc1[N+](=O)[O-]` the GTP binding activity was inactive: 87%.
`Cn1c(-c2ccc(F)cc2)cnc1SCC(=O)NNC(=O)Cc1ccccc1` was tested, and the GTP binding activity was inactive: 99%.
In the case of `Cc1c(N=Cc2ccc(-c3ccc(Cl)cc3)o2)c(=O)n(-c2ccccc2)n1C`, the GTP binding activity is reported as inconclusive: 93%.
With `O=C(CNC(=O)c1ccccc1)Nc1cccc(C(F)(F)F)c1` the GTP binding activity was inconclusive: 472%.
In the case of `Cn1c(C(=O)N2CCN(C(=O)c3ccco3)CC2)cc2c(=O)n3ccccc3nc21`, the GTP binding activity is reported as inconclusive: 90%.
In the case of `COc1ccc(CCNC(=O)C2CC(=O)N(c3ccc(Br)cc3)C2)cc1OC` (configuration not stated), the GTP binding activity is reported as inconclusive: 96%.
In the case of `Oc1c(Br)cc(C=Nc2ccc3nc(-c4ccccc4)[nH]c3c2)c(O)c1Br`, the GTP binding activity is reported as inconclusive: 86%.
With `COc1cccc(NC(=O)CC2(CC(=O)O)CCCC2)c1` the GTP binding activity was inconclusive: 94%.
For `CCOC(=O)c1ccc(N2CCN(c3ccccc3F)CC2)c(NC(=O)Nc2ccccc2)c1`, the GTP binding activity was inconclusive: 97%.
